# Source: PubChem BioAssay AID2100 (National Center for Advancing Translational Sciences (NCATS), 2009)
# “And” between values parts separate entries of the source, which are not always exact repeats. Identical values can stand only once. In all, about 300,000 compounds went through this assay and about 1,200 (0.4%) were called active. The shares of active, inactive and inconclusive entries below differ from those in the screen. Calls follow the shape of the dose curve; as a rule, active = well fitted inhibition curve with a large enough effect; inconclusive = small, poorly fitted or top-dose-only effect, or another doubt; inactive = no such curve, though single readings can be large or run the other way. A potency beside an inconclusive call is a rough fit, not a confirmed value. Some structures have more than one record in an assay (separate samples or runs), and their calls can disagree.
# Molecular target: Lysosomal alpha-glucosidase (Homo sapiens) (UniProt P10253)
# Test: qHTS Assay for Inhibitors and Activators of Human alpha-Glucosidase Cleavage of Glycogen;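 as to activity change, negative = inhibition: 0% = full enzyme reaction and -100% = no-enzyme basal signal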
# Settings: recombinant GAA, glycogen substrate, Amplex Red glucose oxidase fluorescence; activity change, negative = inhibition: at 76.4 µM (top of the series) unless noted
# Procedure, shortened: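 qHTS, 1536-well; enzyme 4 nM final; cpd up to 77 uM; substrate bovine liver glycogen 30 ug; 50 mM citrate/phosphate pH 5.0, 0.01% Tween-20; 37 C, 40 min; Amplex Red detection 45 min RT; Hill fit → AC50.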
# Potency is read from the fitted curve at half-maximal effect.
Structure (SMILES),Potency,"activity change, negative = inhibition"
Cn1cc(/C=N/Nc2ccccc2)c2ccccc21,"inconclusive: 19.8 µM [inhibitor, partial curve]",
N#C/C=C(/N)N1CCN(c2ccc(Cl)c(Cl)c2)CC1,"inconclusive: 20 µM [activator, partial curve]",
O=C1c2ccccc2NC(c2ccc(-c3cccc(Cl)c3)o2)N1O (stereo not given),"inconclusive: 14 µM [inhibitor, partial curve]",
COc1cc(/C=C/c2nc(C#N)c(NC(C)c3ccccc3)o2)cc(OC)c1OC (stereo not given),"inconclusive: 35.5 µM [inhibitor, partial curve]",
O=C(NC(Cc1c[nH]c2ccccc12)c1nnc2n1CCCCC2)c1ccccc1Cl (stereo not given),,inconclusive: 39.1% [activator]
CC(C(=O)N1CCCC1)N1CCN(c2ccccc2O)CC1 (stereo not given),"inconclusive: 2.24 µM [inhibitor, full curve]",
CCC(C)NC(=O)CCC(=O)NNc1nc2ccccc2c2nc(C)nn12 (stereo not given),"inconclusive: 11.2 µM [inhibitor, full curve, poor fit]",
COc1cc(/C=C2/C(=O)NN(c3cccc(C)c3)C2=O)cc([N+](=O)[O-])c1O,"inconclusive: 19.8 µM [inhibitor, single point]",
O=C(Nc1ccccc1F)C(Cc1ccccc1)N1Cc2ccccc2C1=O (stereo not given),inactive,
COc1ccc(Cn2nnnc2C(c2ccc(N(C)C)cc2)N2CCC(C)CC2)cc1 (stereo not given),"inconclusive: 39.5 µM [inhibitor, single point]",
COc1ccccc1C1C(C#N)=C(N)N(N(C)C)C2=C1C(=O)CC(C)(C)C2 (stereo not given),"inconclusive: 28.2 µM [inhibitor, partial curve]",
Cc1ccc(N2CCN(S(=O)(=O)c3ccc4c(c3)CC(=O)N4)CC2)cc1,"inconclusive: 53.3 µM [inhibitor, partial curve]",
CCc1ccc(O)c(N=Cc2cccc(C)c2O)c1,active: 15.7 µM,
C[C@](N)(Cc1ccc(O)c(O)c1)C(=O)O,"inconclusive: 3.55 µM [inhibitor, full curve]",
CC(/C=C/c1ccccc1)=N\NC(=S)NC(C)C,"inconclusive: 22.4 µM [inhibitor, single point]",
CCc1ccc(C2NC(=S)NC3=C2C(=O)N(c2ccccc2OC)C(c2ccc(CC)cc2)N3)cc1 (stereo not given),"inconclusive: 25.1 µM [inhibitor, partial curve]",
Cc1ccc(N2C(=O)C3Sc4[nH]c(=O)sc4C(c4ccccc4)C3C2=O)cc1 (stereo not given),active: 31.4 µM,
CCc1cccc(NC(=O)C(Cc2ccccc2)NS(=O)(=O)c2ccc3c(c2)c(=O)n(C)c(=O)n3C)c1 (stereo not given),inactive,
O=[N+]([O-])c1ccccc1N/N=C/c1cccc(O)c1O,"inconclusive: 5.01 µM [inhibitor, full curve]",
Cc1cccc(NC(=S)NNC(=O)Cc2ccccc2)c1,"inconclusive: 8.84 µM [inhibitor, partial curve]",
COCCNC(=S)NN=C1CCCCC1,"inconclusive: 44.7 µM [inhibitor, single point]",
COC(=O)CCC(=O)OC1(C)C(=O)C=C2C=C(C3CC3)N(Cc3ccco3)C=C2C1=O (stereo not given),inactive,
CC1(C)C(c2ccco2)=[N+]([O-])C2(CCCCC2=O)N1O (stereo not given),inactive,
O=C(Nc1ccc(C(=O)N2CCCC2)cc1)c1ccccc1[N+](=O)[O-],inactive,

Structure (SMILES),Potency,"activity change, negative = inhibition"
CCCCOC(=O)Cn1nnc2sc(-c3ccccc3)cc2c1=O,inactive,
Fc1ccccc1Nc1nc2c(s1)CCc1ccccc1-2,inactive,
CCOC(=O)Cc1ccc(NC(=O)N(C(C)C)C2CCN(C(C)=O)CC2)cc1,"inconclusive: 10 µM [inhibitor, single point]",
CCOC(=O)C(C(=O)OCC)c1cc(Br)c2noc3c2c1C(=O)c1ccccc1-3,,inconclusive: 33.1% [activator]
[O-]/C(=C(\C(=S)Nc1cccc2ccccc12)[n+]1ccccc1)c1ccc(Cl)s1,inactive,
CN(C)NC(=O)c1ccsc1NC(=O)c1ccc(S(=O)(=O)N(C)C)cc1,active: 5.62 µM,
Fc1ccc(NCc2n[nH]c(=S)n2Cc2ccccc2)cc1,"inconclusive: 50.1 µM [inhibitor, single point]",
COc1cc(CNc2ccc3[nH]c(=O)[nH]c3c2)ccc1OCc1ccc(C)cc1,"inconclusive: 50.1 µM [inhibitor, single point]",
COc1ccc(N/N=C(\C#N)C(=O)NCCc2ccc(OC)c(OC)c2)cc1,"inconclusive: 28 µM [inhibitor, partial curve]",
COc1ccccc1/C=N/Nc1nc(C)cc(C)n1,"inconclusive: 28.2 µM [inhibitor, single point]",
NNC(=O)c1sc2cc(C(F)(F)F)cnc2c1-c1cccnc1,"inconclusive: 15.8 µM [inhibitor, partial curve]",
Cc1cc(C)cc(N(CC(=O)O)S(=O)(=O)c2c(C)[nH]c(=O)[nH]c2=O)c1,inactive,
CCCOc1ccc(/C(O)=C2/C(=O)C(=O)N(CCCN3CCOCC3)C2c2ccncc2)cc1 (stereo not given),"inconclusive: 19.8 µM [activator, partial curve]",
Nc1n[nH]c(=S)n1-c1ccc(Cl)cc1,"inconclusive: 22.2 µM [inhibitor, partial curve]",
CC(=O)Nc1ccc(NC(=O)CSc2nnc(C)c(=O)[nH]2)cc1,"inconclusive: 3.16 µM [inhibitor, full curve, poor fit]",
CCCc1cc(=O)oc2c(CNc3ccc(OCC)cc3)c(O)ccc12,"inconclusive: 50.1 µM [inhibitor, single point]",
COc1ccc(-n2c(CCc3ccccc3)n[nH]c2=S)cc1,"inconclusive: 39.8 µM [inhibitor, partial curve]",
CCOC(=O)C(=NC1CCS(=O)(=O)C1)NNc1ccccc1Cl (stereo not given),"inconclusive: 28.2 µM [inhibitor, single point]",
O=C(Nc1ccc(Cl)c(Cl)c1)N(CCCN1CCOCC1)Cc1cccs1,inactive,
c1cncc(CNc2ccc3c(c2)OCO3)c1,active: 17.8 µM,
O=C(NNC(=S)Nc1ccccc1)C1CCCCC1,"inconclusive: 24.9 µM [inhibitor, partial curve]",
Cc1ccc(-c2cnc(NCc3c(F)cccc3Cl)n2C)cc1,active: 22.4 µM,
Cc1ccc(C(=O)COC(=O)CCN2C(=O)C3C4CCC(C4)C3C2=O)cc1[N+](=O)[O-] (stereo not given),"inconclusive: 35.5 µM [inhibitor, single point]",
CCn1c(C)nc2cc(C(=O)N/N=C/c3ccc(N4CCOCC4)cc3)ccc21,"inconclusive: 39.5 µM [inhibitor, single point]",

Structure (SMILES),Potency,"activity change, negative = inhibition"
Cc1ccc(NC(=O)Cn2ncc3c4ccccc4n(Cc4ccccc4)c3c2=O)cc1Cl,"inconclusive: 5.62 µM [inhibitor, partial curve]",
CC/C(=N\O)C(C)(C)/[N+]([O-])=C/c1ccc(Br)cc1,"inconclusive: 28.2 µM [inhibitor, partial curve]",
S=C(Nc1ccc(Cl)c(Cl)c1)NN1CCOCC1,"inconclusive: 14 µM [inhibitor, partial curve]",
O=C(N/N=C/c1cccnc1)c1ccccc1OCc1ccc(Br)cc1,inactive,
COc1cc(/C=N\NC(=O)CNC(=O)C(c2ccccc2)c2ccccc2)ccc1O,"inconclusive: 19.8 µM [inhibitor, partial curve]",
CCOC(=O)Cc1csc(NC(=O)/C=C\c2ccccc2Cl)n1,inactive,
Cc1cc2cc(CN(CCCN3CCOCC3)C(=O)NC3CCCCC3)c(=O)[nH]c2cc1C,"inconclusive: 35.5 µM [activator, single point]",
C/C(CC(=O)Nc1cccc(C(F)(F)F)c1)=N\NC(=O)c1cnccn1,"inconclusive: 44.7 µM [inhibitor, single point]",
CCCn1c(SCc2nc(-c3ccccc3OCC)no2)nnc1-c1ccc(Cl)cc1,inactive,
CCc1ccc(-c2cn3c(n2)sc2cc(C(=O)NCCC4=CCCCC4)ccc23)cc1,inactive,
O=C(CCS(=O)(=O)c1nc(-c2cccs2)cc(C(F)(F)F)n1)Nc1cc(Br)ccc1O,inactive,
CC(C)(C)c1ccc(C(=O)NCCC(=O)NCc2ccco2)cc1,"inconclusive: 14 µM [inhibitor, partial curve, poor fit]",
Cc1cc(O)ccc1N/C=C1\CCCC1=O,inactive,
O=C(NNc1cccc(Cl)n1)c1ccc(Cl)nc1,"inconclusive: 39.5 µM [inhibitor, single point]",
COc1cc(CNc2ccc(N3CCCCC3)cc2)ccc1OCC(=O)NC(C)(C)C,"inconclusive: 39.8 µM [inhibitor, single point]",
O=C(CN1C(=O)C2CCCN2c2ncc(Cl)cc21)NCc1ccc2c(c1)OCO2 (stereo not given),"inconclusive: 8.84 µM [inhibitor, partial curve]",
COC(=O)CNC(=O)C1CCN(S(=O)(=O)c2cccc3nsnc23)CC1,inactive and active: 11.2 µM,
O=C(Nc1cccc(C(F)(F)F)c1)c1cc(S(=O)(=O)N2CCCC2)c[nH]1,inactive,
CCCc1cc(-c2n[nH]c(C)c2-c2ccc(C(=O)OCC)o2)c(O)cc1O,"inconclusive: 22.4 µM [inhibitor, partial curve]",
S=C1NNC2(CC3CC2C2CCCC32)NN1 (stereo not given),"inconclusive: 17.8 µM [inhibitor, partial curve]",
Cc1cccc(N2CCN(C(=O)c3ccc4c(Cl)c5c(nc4c3)CCCC5)CC2C)c1 (stereo not given),inactive,
O=C(Nc1c(C(=O)O)[nH]c2ccccc12)NC1CCCCC1,"inconclusive: 39.5 µM [inhibitor, single point]",
